Measurements published in article PMC9911399, “Two distinct binding modes provide the RNA-binding protein RbFox with extraordinary sequence specificity”.
Positions count from the first letter of the chain named. Some of the results follow.

T1: RBFOX1 RRM RbFoxmut (Fox-RRM*) (Homo sapiens, UniProt Q9NWB1 109-208, R118D;E147R;N151S;E152T)
T1 sequence: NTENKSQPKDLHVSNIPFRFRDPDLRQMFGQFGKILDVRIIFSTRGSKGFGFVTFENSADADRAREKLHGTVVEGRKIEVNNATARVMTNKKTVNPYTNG

B1: CUGCACG (DNA:RNA)
RNA: GGGAGACCGGAAUUCAGAUUGUCCCUGCACGUUAAAUCCCGUCGUAGCCACCA
DNA 1: CAATCTGAATTCCGGTCTCCC
DNA 2: TGGTGGCTACGACGGGATT
B2: AGCACGC (DNA:RNA)
RNA: GGGAGACCGGAAUUCAGAUUGUCCAGCACGCUUAAAUCCCGUCGUAGCCACCA
DNA 1: CAATCTGAATTCCGGTCTCCC
DNA 2: TGGTGGCTACGACGGGATT
B3: UGUUACU (DNA:RNA)
RNA: B1 RNA with C25U, U26G, G27U, C28U, G31U
DNA 1: CAATCTGAATTCCGGTCTCCC
DNA 2: TGGTGGCTACGACGGGATT
B4: GGCGGGC (DNA:RNA)
RNA: B2 RNA with A25G, A28G, C29G
DNA 1: CAATCTGAATTCCGGTCTCCC
DNA 2: TGGTGGCTACGACGGGATT
B5: UCACUUC (DNA:RNA)
RNA: B2 RNA with A25U, G26C, C27A, A28C, C29U, G30U
DNA 1: CAATCTGAATTCCGGTCTCCC
DNA 2: TGGTGGCTACGACGGGATT
B6: CCUGACA (DNA:RNA)
RNA: B1 RNA with U26C, G27U, C28G, G31A
DNA 1: CAATCTGAATTCCGGTCTCCC
DNA 2: TGGTGGCTACGACGGGATT
B7: GUCUCAU (DNA:RNA)
RNA: B2 RNA with A25G, G26U, A28U, G30A, C31U
DNA 1: CAATCTGAATTCCGGTCTCCC
DNA 2: TGGTGGCTACGACGGGATT
B8: UUCGGAA (DNA:RNA)
RNA: B2 RNA with A25U, G26U, A28G, C29G, G30A, C31A
DNA 1: CAATCTGAATTCCGGTCTCCC
DNA 2: TGGTGGCTACGACGGGATT
B9: GUUCGAA (DNA:RNA)
RNA: B1 RNA with C25G, G27U, A29G, C30A, G31A
DNA 1: CAATCTGAATTCCGGTCTCCC
DNA 2: TGGTGGCTACGACGGGATT
B10: CCGCACU (DNA:RNA)
RNA: B1 RNA with U26C, G31U
DNA 1: CAATCTGAATTCCGGTCTCCC
DNA 2: TGGTGGCTACGACGGGATT
B11: CAUCCUC (DNA:RNA)
RNA: B2 RNA with A25C, G26A, C27U, A28C, G30U
DNA 1: CAATCTGAATTCCGGTCTCCC
DNA 2: TGGTGGCTACGACGGGATT
B12: UACCAGC (DNA:RNA)
RNA: B2 RNA with A25U, G26A, A28C, C29A
DNA 1: CAATCTGAATTCCGGTCTCCC
DNA 2: TGGTGGCTACGACGGGATT
B13: ACAUAUA (DNA:RNA)
RNA: B2 RNA with G26C, C27A, A28U, C29A, G30U, C31A
DNA 1: CAATCTGAATTCCGGTCTCCC
DNA 2: TGGTGGCTACGACGGGATT
B14: GAUGCCG (DNA:RNA)
RNA: B1 RNA with C25G, U26A, G27U, C28G, A29C
DNA 1: CAATCTGAATTCCGGTCTCCC
DNA 2: TGGTGGCTACGACGGGATT
B15: ACCGCGC (DNA:RNA)
RNA: B2 RNA with G26C, A28G
DNA 1: CAATCTGAATTCCGGTCTCCC
DNA 2: TGGTGGCTACGACGGGATT
B16: GCCGAAC (DNA:RNA)
RNA: B2 RNA with A25G, G26C, A28G, C29A, G30A
DNA 1: CAATCTGAATTCCGGTCTCCC
DNA 2: TGGTGGCTACGACGGGATT
B17: ACCCUAG (DNA:RNA)
RNA: B2 RNA with G26C, A28C, C29U, G30A, C31G
DNA 1: CAATCTGAATTCCGGTCTCCC
DNA 2: TGGTGGCTACGACGGGATT
B18: CUGCGCG (DNA:RNA)
RNA: B1 RNA with A29G
DNA 1: CAATCTGAATTCCGGTCTCCC
DNA 2: TGGTGGCTACGACGGGATT
B19: UCUUCUG (DNA:RNA)
RNA: B2 RNA with A25U, G26C, C27U, A28U, G30U, C31G
DNA 1: CAATCTGAATTCCGGTCTCCC
DNA 2: TGGTGGCTACGACGGGATT
B20: UGCGGUG (DNA:RNA)
RNA: B2 RNA with A25U, A28G, C29G, G30U, C31G
DNA 1: CAATCTGAATTCCGGTCTCCC
DNA 2: TGGTGGCTACGACGGGATT
B21: CUGACUC (DNA:RNA)
RNA: B2 RNA with A25C, G26U, C27G, G30U
DNA 1: CAATCTGAATTCCGGTCTCCC
DNA 2: TGGTGGCTACGACGGGATT
B22: CCCCCGU (DNA:RNA)
RNA: B2 RNA with A25C, G26C, A28C, C31U
DNA 1: CAATCTGAATTCCGGTCTCCC
DNA 2: TGGTGGCTACGACGGGATT
B23: AACCCCG (DNA:RNA)
RNA: B2 RNA with G26A, A28C, G30C, C31G
DNA 1: CAATCTGAATTCCGGTCTCCC
DNA 2: TGGTGGCTACGACGGGATT
B24: CGCUAAU (DNA:RNA)
RNA: B2 RNA with A25C, A28U, C29A, G30A, C31U
DNA 1: CAATCTGAATTCCGGTCTCCC
DNA 2: TGGTGGCTACGACGGGATT
B25: CGUCCCG (DNA:RNA)
RNA: B1 RNA with U26G, G27U, A29C
DNA 1: CAATCTGAATTCCGGTCTCCC
DNA 2: TGGTGGCTACGACGGGATT
B26: CAUGAGC (DNA:RNA)
RNA: B2 RNA with A25C, G26A, C27U, A28G, C29A
DNA 1: CAATCTGAATTCCGGTCTCCC
DNA 2: TGGTGGCTACGACGGGATT
B27: GUACUUU (DNA:RNA)
RNA: B1 RNA with C25G, G27A, A29U, C30U, G31U
DNA 1: CAATCTGAATTCCGGTCTCCC
DNA 2: TGGTGGCTACGACGGGATT
B28: UCAGCAA (DNA:RNA)
RNA: B2 RNA with A25U, G26C, C27A, A28G, G30A, C31A
DNA 1: CAATCTGAATTCCGGTCTCCC
DNA 2: TGGTGGCTACGACGGGATT
B29: UGUCAGC (DNA:RNA)
RNA: B2 RNA with A25U, C27U, A28C, C29A
DNA 1: CAATCTGAATTCCGGTCTCCC
DNA 2: TGGTGGCTACGACGGGATT
B30: UUCGCUU (DNA:RNA)
RNA: B2 RNA with A25U, G26U, A28G, G30U, C31U
DNA 1: CAATCTGAATTCCGGTCTCCC
DNA 2: TGGTGGCTACGACGGGATT
B31: AGGGGAA (DNA:RNA)
RNA: B2 RNA with C27G, A28G, C29G, G30A, C31A
DNA 1: CAATCTGAATTCCGGTCTCCC
DNA 2: TGGTGGCTACGACGGGATT

biological target: T1, RBFOX1 RRM RbFoxmut (Fox-RRM*); assay: EMSA; HiTS-Eq, 1 nM pool, 10 min; buffer printed only for the single-RNA assays: 10 mM Tris pH 7.5, 150 mM NaCl, 3.4 mM EDTA, 0.001% NP-40, 30 C; conditions: tags: His6 N-terminal (pET28a); label: 5' 32P
Procedure, shortened: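 Purified RbFox RRM, wild type or mutant, was incubated for 10 min in 50 µL with 1 nM of a 5′-radiolabelled RNA pool carrying 7 randomized nucleotides, whose flanks were annealed to DNA oligonucleotides, over a series of increasing protein concentrations. Unbound RNA was resolved on 8% native PAGE, cut out, reverse-transcribed, barcoded by PCR and sequenced on an Illumina HiSeq 2500. Relative association constants were derived from changes in read counts for each RNA species versus the control reaction and normalised to the cognate motif.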

Binder | binding signal
B1 | 0.626 KA relative to UGCAUGU
B2 | 0.11 KA relative to UGCAUGU
B3 | 0.119 KA relative to UGCAUGU
B4 | 0.0949 KA relative to UGCAUGU
B5 | 0.0526 KA relative to UGCAUGU
B6 | 0.0551 KA relative to UGCAUGU
B7 | 0.141 KA relative to UGCAUGU
B8 | 0.0883 KA relative to UGCAUGU
B9 | 0.129 KA relative to UGCAUGU
B10 | 0.0955 KA relative to UGCAUGU
B11 | 0.114 KA relative to UGCAUGU
B12 | 0.0761 KA relative to UGCAUGU
B13 | 0.15 KA relative to UGCAUGU
B14 | 0.0721 KA relative to UGCAUGU
B15 | 0.108 KA relative to UGCAUGU
B16 | 0.0734 KA relative to UGCAUGU

Binder | binding signal
B17 | 0.121 KA relative to UGCAUGU
B18 | 0.186 KA relative to UGCAUGU
B19 | 0.0672 KA relative to UGCAUGU
B20 | 0.16 KA relative to UGCAUGU
B21 | 0.0745 KA relative to UGCAUGU
B22 | 0.12 KA relative to UGCAUGU
B23 | 0.0723 KA relative to UGCAUGU
B24 | 0.0911 KA relative to UGCAUGU
B25 | 0.0717 KA relative to UGCAUGU
B26 | 0.107 KA relative to UGCAUGU
B27 | 0.0719 KA relative to UGCAUGU
B28 | 0.0616 KA relative to UGCAUGU
B29 | 0.112 KA relative to UGCAUGU
B30 | 0.0731 KA relative to UGCAUGU
B31 | 0.134 KA relative to UGCAUGU
